# Experimental data from publication PMC11995724, “Antibiotic target discovery by integrated phenotypic and activity-based profiling of electrophilic fragments” (Cell chemical biology, 2025).
# The whole screen tested about 3,200 compounds, of which about 110 (3.4%) showed an effect of 50% or more. The list shows a part of the results.
# System: T1, V. cholerae SAD30
# T1 construct: SAD30
# Set-up: species or system S. aureus MSSA476 (TSB) or V. cholerae SAD30 (LB); 384-well bacterial growth screen at 25 uM, OD600 relative to DMSO control
# Settings: relative growth, OD600, LB; 25 µM; inhibitor
row,SMILES,% of control remaining
1,"C=CC(=O)NCCC(=O)N1CCN(c2nc(C)cs2)CC1 [3-F07, N-{3-[4-(4-methyl-1,3-thiazol-2-yl)piperazin-1-yl]-3-oxopropyl}prop-2-enamide]",95.0891%
2,"O=C(CCl)Nc1ccc(N=Nc2ccccc2)cc1 [4-C11, 2-chloro-N-[4-(2-phenyldiazen-1-yl)phenyl]acetamide]",92.9912%
3,"C=CC(=O)Nc1ccnc(OC2CCCCC2)c1 [2-A04, N-[2-(cyclohexyloxy)pyridin-4-yl]prop-2-enamide]",110.422%
4,"C=CC(=O)N(Cc1ccc(=O)n(C)c1)C1CCCc2ccccc21 (centres unmarked) [1-B17, N-[(1-methyl-6-oxo-1,6-dihydropyridin-3-yl)methyl]-N-(1,2,3,4-tetrahydronaphthalen-1-yl)prop-2-enamide]",82.0628%
5,"COC(=O)c1cc(C(=O)CCl)c(C)o1 [10-G13, methyl 4-(2-chloroacetyl)-5-methylfuran-2-carboxylate]",43.6392%
6,"C=CC(=O)NCCCn1cnc2c1CCCC2 [3-K20, N-[3-(4,5,6,7-tetrahydro-1H-1,3-benzodiazol-1-yl)propyl]prop-2-enamide]",94.3834%
7,"C=CC(=O)N1CCC(C(=O)N[C@@H]2C[C@H]2c2ccc(Cl)c(F)c2)CC1 [3-B14, N-[(1R,2S)-2-(4-chloro-3-fluorophenyl)cyclopropyl]-1-(prop-2-enoyl)piperidine-4-carboxamide]",104.793%
8,"N#CC(=Cc1cnn(Cc2ccccc2)c1)C(=O)Nc1nccs1 [9-M03, 3-(1-benzyl-1H-pyrazol-4-yl)-2-cyano-N-(1,3-thiazol-2-yl)prop-2-enamide]",94.5615%
9,"C=CC(=O)N(C)CC(=O)N1CCC(c2nc(-c3ccccc3)n[nH]2)CC1 [2-H20, N-methyl-N-{2-oxo-2-[4-(3-phenyl-1H-1,2,4-triazol-5-yl)piperidin-1-yl]ethyl}prop-2-enamide]",93.747%
10,"C=CC(=O)N(Cc1cccc2ccoc12)C1CCSCC1 [1-D04, N-[(1-benzofuran-7-yl)methyl]-N-(thian-4-yl)prop-2-enamide]",127.331%
11,"O=C(CCl)Cc1cccc(F)c1F [10-K17, 1-chloro-3-(2,3-difluorophenyl)propan-2-one]",0.1559%
12,"CN(C)c1ccc(C=C(C#N)C(=O)NCc2ccco2)cc1 [9-D10, 2-cyano-3-[4-(dimethylamino)phenyl]-N-[(furan-2-yl)methyl]prop-2-enamide]",75.2549%
13,"C=CC(=O)NCCn1nc(C)cc1C [3-M13, N-[2-(3,5-dimethyl-1H-pyrazol-1-yl)ethyl]prop-2-enamide]",97.7357%
14,"C=CC(=O)N(C)c1ccccc1C(=O)NC [2-O18, N-methyl-2-(N-methylprop-2-enamido)benzamide]",90.6591%
15,"COCCNC(=O)C(C#N)=Cc1c(Cl)cccc1Cl [8-O13, 2-cyano-3-(2,6-dichlorophenyl)-N-(2-methoxyethyl)prop-2-enamide]",69.6805%
16,"N#CC(C(=O)NC1CCCCC1)=C1N=C(N)c2ccccc21 [9-N06, 2-(3-amino-1H-isoindol-1-ylidene)-2-cyano-N-cyclohexylacetamide]",86.4038%
17,"COc1cccc(NC(=O)C(C#N)=Cc2cccc(Cl)c2Cl)c1 [8-F06, 2-cyano-3-(2,3-dichlorophenyl)-N-(3-methoxyphenyl)prop-2-enamide]",72.8076%
18,"COC(=O)c1c(C(=O)CCl)c(C)n(C2CC2)c1C [10-H03, methyl 4-(2-chloroacetyl)-1-cyclopropyl-2,5-dimethyl-1H-pyrrole-3-carboxylate]",105.513%
19,"O=C(CCl)NC1CCCc2c1cnn2Cc1ccccc1 (centres unmarked) [7-F20, N-(1-benzyl-4,5,6,7-tetrahydro-1H-indazol-4-yl)-2-chloroacetamide]",82.075%
20,"CC(Cl)C(=O)c1c(N)n(C)c(=O)n(C)c1=O (centres unmarked) [10-F22, 6-amino-5-(2-chloropropanoyl)-1,3-dimethyl-1,2,3,4-tetrahydropyrimidine-2,4-dione]",103.643%
21,"COc1ccc(C=C(C#N)C(=O)Nc2ccccc2OC)cc1O [8-J19, 2-cyano-3-(3-hydroxy-4-methoxyphenyl)-N-(2-methoxyphenyl)prop-2-enamide]",74.5751%
22,"C=CC(=O)Nc1ccc2occc2c1 [3-H14, N-(1-benzofuran-5-yl)prop-2-enamide]",89.2667%

row,SMILES,% of control remaining
1,"C=CC(=O)N1CCCC(CS(=O)(=O)NC)C1 (centres unmarked) [2-E18, N-methyl-1-[1-(prop-2-enoyl)piperidin-3-yl]methanesulfonamide]",95.4453%
2,"C[C@H](NC(=O)CCl)C(=O)N1CCCCC1 [7-L14, 2-chloro-N-[(2S)-1-oxo-1-(piperidin-1-yl)propan-2-yl]acetamide]",80.489%
3,"C=CC(=O)NCc1cnc(N2CCOCC2)s1 [1-M03, N-{[2-(morpholin-4-yl)-1,3-thiazol-5-yl]methyl}prop-2-enamide]",98.5052%
4,"C=CC(=O)N(C)CC(=O)N1CCCCC1c1nc(C)no1 (centres unmarked) [3-K17, N-methyl-N-{2-[2-(3-methyl-1,2,4-oxadiazol-5-yl)piperidin-1-yl]-2-oxoethyl}prop-2-enamide]",92.0897%
5,"COc1ccc2[nH]cc(C3=CCN(C(=O)C=CCN(C)C)CC3)c2c1 [10-F03, 4-(dimethylamino)-1-[4-(5-methoxy-1H-indol-3-yl)-1,2,3,6-tetrahydropyridin-1-yl]but-2-en-1-one]",105.202%
6,"COc1ccc2ccccc2c1C=C(C#N)C(=O)N1CCCC1 [8-P12, 3-(2-methoxynaphthalen-1-yl)-2-(pyrrolidine-1-carbonyl)prop-2-enenitrile]",68.5928%
7,"Cc1ccc(S(=O)(=O)N(C)C)cc1NC(=O)C(C)Cl (centres unmarked) [4-I06, 2-chloro-N-[5-(dimethylsulfamoyl)-2-methylphenyl]propanamide]",99.3746%
8,"Cc1ccc(C=C(C#N)C(N)=O)c(C)c1 [9-M04, 2-cyano-3-(2,4-dimethylphenyl)prop-2-enamide]",93.0659%
9,"O=C(CCl)Nc1cc2c(cc1[N+](=O)[O-])OCCCO2 [4-O05, 2-chloro-N-(8-nitro-3,4-dihydro-2H-1,5-benzodioxepin-7-yl)acetamide]",108.001%
10,"C=CC(=O)Nc1ccc2c(c1)SCC(=O)N2 [1-C22, N-(3-oxo-3,4-dihydro-2H-1,4-benzothiazin-7-yl)prop-2-enamide]",102.99%
11,"O=C(CCl)N1CCc2sccc2C1c1cccs1 (centres unmarked) [4-L20, 2-chloro-1-[4-(thiophen-2-yl)-4H,5H,6H,7H-thieno[3,2-c]pyridin-5-yl]ethan-1-one]",86.6077%
12,"C=CC(=O)N(C)CC(=O)N1CCn2cccc2C1C (centres unmarked) [2-K10, N-methyl-N-(2-{1-methyl-1H,2H,3H,4H-pyrrolo[1,2-a]pyrazin-2-yl}-2-oxoethyl)prop-2-enamide]",87.108%
13,"N#CC(=Cc1ccc(N2CCCCC2)cc1)C(=O)Nc1nccs1 [8-C04, 2-cyano-3-[4-(piperidin-1-yl)phenyl]-N-(1,3-thiazol-2-yl)prop-2-enamide]",87.3555%
14,"C=CC(=O)Nc1c2c(cc3c1CCC3)CCC2 [1-C11, N-(1,2,3,5,6,7-hexahydro-s-indacen-4-yl)prop-2-enamide]",80.7175%
15,"C=CC(=O)NCc1ccc(N2CCN(C)CC2)cc1 [3-I20, N-{[4-(4-methylpiperazin-1-yl)phenyl]methyl}prop-2-enamide]",92.9719%
16,"C=CC(=O)NC(c1ccc(F)cc1)c1ccn(C)n1 (centres unmarked) [3-J20, N-[(4-fluorophenyl)(1-methyl-1H-pyrazol-3-yl)methyl]prop-2-enamide]",93.6776%
17,"N#CC(=Cc1ccc(F)cc1)C(=O)Nc1ccc(C(=O)O)cc1 [8-L07, 4-[2-cyano-3-(4-fluorophenyl)prop-2-enamido]benzoic acid]",75.6628%
18,"CN(C)C(CNC(=O)CCl)c1ccccc1.Cl (centres unmarked) [4-B21, 2-chloro-N-[2-(dimethylamino)-2-phenylethyl]acetamide hydrochloride]",105.586%
19,"CC(C)NC(=O)C(C#N)=Cc1c(Cl)cccc1Cl [9-E13, 2-cyano-3-(2,6-dichlorophenyl)-N-(propan-2-yl)prop-2-enamide]",81.5092%
20,"CC(NC(=O)CCl)c1nc(Cc2ccccc2)no1 (centres unmarked) [6-L07, N-[1-(3-benzyl-1,2,4-oxadiazol-5-yl)ethyl]-2-chloroacetamide]",93.8857%
21,"COc1cc(C=C(C#N)C(=O)Nc2ccc(C)cc2)cc(Cl)c1O [8-P05, 3-(3-chloro-4-hydroxy-5-methoxyphenyl)-2-cyano-N-(4-methylphenyl)prop-2-enamide]",76.6145%
22,"CC1Cc2cc(C(=O)CCl)ccc2N1S(C)(=O)=O (centres unmarked) [10-A04, 2-chloro-1-(1-methanesulfonyl-2-methyl-2,3-dihydro-1H-indol-5-yl)ethan-1-one]",89.6162%
